In all, about 46,000 compounds went through this assay and about 60 (0.1%) were called active. Another 3% or so got no clear call; they are omitted. The call rests on the fitted dose curve; in most records, active means well fitted inhibition curve with a large enough effect; inconclusive means small, poorly fitted or top-dose-only effect; inactive means no such curve, though single readings can be large or run the other way. The list shows a part of the results.
Experiment: Primary qHTS assay for Inhibitors of ovarian cancer metastasis using an organotypic tumor microenvironment (TME) model. Further: nearly all actives have a fitted effect of over 65% in size.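 On activity change, negative = inhibition: plate controls were DMSO wells for no effect and tomatine positive control wells for full effect.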
Conditions: SKOV3ip1-GFP adhesion/invasion on 3D omental model, fluorescence; series mostly up to 45.8 µM; activity change, negative = inhibition: at the top concentration
Outline: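 A 3D layer of primary human omental fibroblasts, mesothelial cells, fibronectin and collagen I, grown 48 hr, received SKOV3ip1-GFP cells in serum-free medium plus compounds at 0.36-46 umol/L. After 2 hr RT and 16 hr 37 C, fixed adherent GFP cells were counted; normalized to DMSO and tomatine.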

outcome, inactive:
CCN(CC)S(=O)(=O)c1ccc2c(c1)N(CC(=O)N(C)Cc1ccccc1)C(=O)CO2, Cc1ccc(Cn2cc(CCC(=O)NCc3ccccc3F)c3ccccc32)cc1, COC(=O)c1ccc(NC(=O)Cn2nc(C(=O)Nc3ccc(C)cc3)ccc2=O)cc1, COc1ccccc1N1CCN(c2ncnc3c2nc2n3CCCC2)CC1, COc1ccc(O)c(C2Nc3ccccc3-n3c(-c4ccccc4)c4c(=O)n(C)c(=O)n(C)c4c32)c1 (stereo not drawn), COc1cccc(CNC(=O)C(NS(=O)(=O)c2ccc3c(c2)oc(=O)n3C)C(C)C)c1 (stereo not drawn), COc1ccc2c(c1)-c1nc(NC(=O)c3ccccc3F)sc1CC2, Cc1nnc(SCc2nc(-c3ccc(Cl)cc3)no2)n1-c1ccc(F)cc1, COc1ccccc1NC(=O)Cn1c(=O)n(CCc2ccccc2)c(=O)c2c3c(sc21)CN(C(C)=O)CC3, COc1ccc(CNC(=O)CSc2ncc3c(n2)-c2cc(Cl)ccc2N(Cc2ccccc2)S3(=O)=O)cc1OC, Cc1cccc(N(C)C(=O)CN(C)S(=O)(=O)c2ccc3[nH]c4c(c3c2)CCCC4)c1, Cc1ccc(Cn2cc(/C=C(/C#N)C(=O)Nc3cccc(Cl)c3)c3ccccc32)cc1, COc1ccc(OC)c(CCNC(=O)CN2C(=O)COc3ccc(S(=O)(=O)N4CCC(C)CC4)cc32)c1, CCC1CCCCN1CCCNC(=O)c1c(O)nc2c(C)cccn2c1=O (stereo not drawn), CCOc1ccccc1NC(=O)c1sc2nc(-c3ccc(OC)cc3)ccc2c1N, O=C(NCCSCc1ccccc1Cl)C1CCN(S(=O)(=O)Cc2ccccc2)CC1, COc1ccc(OCC(=O)Nc2ccc(O)c(-c3nc4ccccc4s3)c2)cc1, CCCn1c(=O)c2sccc2n2c(CCCC(=O)Nc3ccccc3OCC)nnc12, CCS(=O)(=O)N1CC(=O)N(c2cc(C)ccc2C)C(C)(C(=O)NC2CCCCC2)C1 (stereo not drawn), CC(CNC(=O)c1cc(-c2ccccc2)n[nH]1)c1ccccc1 (stereo not drawn), COc1ccc(CN2C(=O)N(c3ccc(F)cc3)C(=O)C2CC(=O)Nc2cc(OC)cc(OC)c2)cc1 (stereo not drawn), CCc1ccc(NC(=O)C2CCC(CNS(=O)(=O)c3ccc4c(c3)C(C)(C)C(=O)N4C)CC2)cc1 (stereo not drawn), O=C(CSc1n[nH]c(-c2ccccc2)n1)N1CCN(c2ccccc2F)CC1, COc1cccc(NC(=O)c2sc3nc(C)c(C(=O)Nc4ccc(Cl)cc4)c(-c4ccc(Br)cc4)c3c2N)c1, OCc1cnc(SCc2ccc(F)cc2)n1Cc1ccc(F)cc1, COc1ccc(-c2c3c(=O)n(C)c(=O)n(C)c3c3n2-c2ccccc2NC3c2ccc(O)cc2O)cc1 (stereo not drawn), CCc1nn(CC(=O)NCCCN2CCN(CC)CC2)c(=O)c2cc3occc3n12, COc1ccccc1N(CC(=O)Nc1ccc2c(c1)OCO2)S(=O)(=O)c1ccc(C)cc1, CCOC(=O)N1CCN(Cc2nc3cc(NC(=O)C(C)C)ccc3n2C(C)C)CC1, Cc1ccc2nc(COc3ccccc3NC(=O)c3ccccc3F)cc(=O)n2c1

Activity change, negative = inhibition, inactive:
Cc1ccc(NC(=O)Cn2c(CCC(=O)O)ccc2-c2ccc(Cl)cc2)cc1 0.799%, Cc1nnsc1C(=O)Oc1ccc(C(C)C)cc1 -0.276%, Cc1cccc(NC(=O)CSc2nc(C3CCCC3)nc3c2c(=O)n(C)c(=O)n3C)c1C 0.182%, Cc1c(C(=O)OCC2CCCCC2)[nH]c2c1C(=O)CC(c1ccc(Cl)cc1)C2 (stereo not drawn) -18.2%, COc1ccc(S(=O)(=O)Nc2cccc(-c3ccc(N4CCCCCC4)nn3)c2)cc1 -9.68%, CCn1c(=O)cc(OCC(=O)NCc2ccccc2Cl)c2ccccc21 -3.83%, CCN(CC)C(=O)c1sc2c(c1C)c(=O)n(-c1ccc(C)c(C)c1)c(=O)n2Cc1cc(=O)n2c(C)cccc2n1 2.3%, COc1cc2ccccc2cc1C(=O)Nc1cc(-c2nc3ccccc3o2)ccc1C 0.867%, Cc1ccc(S(=O)(=O)N2CCc3cc(C(=O)Nc4ccc(C)c(C)c4)ccc32)cc1 5.02%, O=c1cc(-c2ccccc2)nc2cc(-c3ccc(F)cc3)[nH]n12 -15.9%, CCC(=O)OCc1cnc(C)c2oc(=O)c(C(=O)Nc3ccccc3C(F)(F)F)cc12 5.22%, O=C(c1ccccc1)n1nc(-c2ccco2)nc1NCc1cccs1 10.4%, COc1cc2c(cc1OC)CN(CCc1ccc(NC(=O)c3cc(OC)c(OC)cc3NC(=O)c3cnc4ccccc4c3)cc1)CC2 13.7%, COc1ccc(-c2nc3ccccc3o2)cc1NC(=O)CSc1ccc(Cl)cc1 -3.54%, Cc1nn(-c2ccc(N3CCCC3)nn2)c(C)c1CCC(=O)NCc1ccccc1F -6.76%, O=C(CCSCc1ccccc1F)N1CCN(c2ccc(Cl)cc2)CC1 -8.82%, CCCCNc1nc(Oc2ccc(OCCC)nn2)nc(N(C)C)n1 -2.94%, COc1ccc(CC(=O)Nc2c(C(=O)Nc3ccc(F)cc3)oc3ccccc23)cc1OC 4.87%, COc1ccc(-n2c(/C=C/c3cccc4ccccc34)nc3ccccc3c2=O)cc1Cl -0.0736%, CN(C(=O)c1ccc(F)cc1C(F)(F)F)C1CCN(c2nnc(-c3ccnn3C)c3ccccc23)CC1 -25.6%, CCOC(=O)c1ccc(NC2=CC(c3ccc(O)c(OCC)c3)N(c3ccc(C(=O)OCC)cc3)C2=O)cc1 (stereo not drawn) 9.54%, COc1cc2c(C(=O)Nc3ccc(C)cc3Br)cn(C)c(=O)c2cc1OC -0.243%, CCCN1CCN(CCNC(=O)Nc2cc(C)ccc2OC)CC1 18.9%, O=C(Cc1ccc(F)cc1)N1CCC(c2nc3c(nnn3Cc3ccc(F)cc3)c(=O)[nH]2)CC1 -16.1%, Cc1ccc(CNC(=O)c2nc(-c3ccc(Cl)cc3)n3c2CCCCC3)cc1 5.03%, N#Cc1ccccc1Cn1c(=O)n(CCCCC(=O)NCc2ccc3c(c2)OCO3)c(=O)c2ccccc21 -3.18%, Cc1ccccc1C(=O)Nc1nnc(S(=O)(=O)N(C)Cc2ccc(Cl)cc2)s1 1.93%, COc1ccc(CC(=O)N2CC(=O)Nc3ccc(Br)cc3C2c2ccc(F)cc2)cc1 (stereo not drawn) 1.98%, COc1ccc(-c2cn3c(n2)sc2cc(C(=O)NC4CCCCCC4)ccc23)cc1 1.77%, Cc1c(Cl)cccc1NC(=O)C(CCS(C)(=O)=O)N1Cc2ccccc2C1=O (stereo not drawn) -0.167%, Cc1cccc(NC(=O)C(=O)NCCc2sc(-c3ccccc3)nc2C)c1C -4.08%, COc1ccc(-n2nnc(-c3nsc(NC(=O)c4cccs4)n3)c2C)cc1OC -7.35%, Cc1ccc(Cl)cc1NC(=O)N1CCC2(CC1)Oc1ccccc1C(=O)N2Cc1ccccc1F 6.88%, CC(=O)c1c(C)oc2ccc(N(C(=O)Oc3ccccc3)S(=O)(=O)c3ccccc3)cc12 6%, Cc1ccc(S(=O)(=O)c2c(Nc3cc(C)ccc3C)sc(C(=O)c3ccc4c(c3)OCO4)c2N)cc1 -0.881%, CCc1ccc(NC(=O)C(NS(=O)(=O)c2cccc3nsnc23)c2ccccc2)cc1 (stereo not drawn) 7.6%, Cc1nn(C(=O)COc2ccccc2Br)c(C)c1Sc1ccccc1 3.87%, COc1ccc(CCN2C(=O)N(c3ccc(C)cc3)C(=O)C2CC(=O)Nc2ccc(F)cc2)cc1 (stereo not drawn) -17.5%, COc1ccc(C)cc1NC(=O)c1cc(S(=O)(=O)N2CCC(C)CC2)cn1C -17.9%, Cc1cccc(N2CCN(C(=O)c3c(C)oc4ncnc(N5CCOCC5)c34)CC2)c1C -4.99%, Nc1cc(=O)nc(SCC(=O)Nc2ccc(F)cc2)n1-c1cccc(Cl)c1 -17.5%, Cc1cccc(NC(=O)c2sc3nc(-c4ccccc4)cn3c2C)c1C 3.63%, COc1ccc2c(CNCc3ccccc3OC)c(C(=O)O)n(Cc3ccc(F)cc3Cl)c2c1 6.19%, Cn1c(=O)c2[nH]cnc2n(C)c1=O 8.12%, CS(=O)(=O)c1ccc(C2=C(c3ccccc3)C(=O)OC2)cc1 12.6%, O=C(CSc1nc(-c2cccs2)nc2cc(=O)[nH]n12)Nc1cccc(C(F)(F)F)c1 6.94%, CCOc1ccc(C(=O)N(Cc2cc(OC)c(OC)c(OC)c2)c2ccccn2)cc1 -7.91%, COc1ccc(N(CC(=O)Nc2cccc(C(C)=O)c2)S(=O)(=O)c2ccccc2)c(OC)c1 -6.09%, COc1ccc(CCNC(c2ccc(F)cc2)c2nnc(-c3ccccc3Cl)o2)cc1OC (stereo not drawn) -0.338%, Cc1nn(C)c2c1c(C(F)(F)F)cc(=O)n2C(C)C(=O)NCCc1ccccc1 (stereo not drawn) -20.4%, O=C(Nc1nc2n(n1)C(c1ccc(Cl)cc1)C=C(c1ccccc1)N2)c1ccco1 (stereo not drawn) -16.8%, CCOC(=O)C1=C(C)NC(=O)NC1c1cn(-c2ccccc2)nc1-c1ccc(OC(C)C)cc1 (stereo not drawn) -12.8%, CCCOc1ccc(-c2nonc2NC(=O)c2oc3ccc(Cl)cc3c2C)cc1OCCC -18.5%, CCOc1ccc(S(=O)(=O)c2cn(Cc3ccccc3C)c3ccc(OC)cc3c2=O)cc1 -0.255%, O=C(CN1c2ccccc2S(=O)(=O)c2ccccc21)Nc1ccccc1Cl 1.64%, O=C(Cn1cnc2onc(-c3ccc(F)cc3)c2c1=O)Nc1ccc(F)c(Cl)c1 -26.8%, O=C(c1ccc(F)cc1)N1CCC(c2nc(-c3ccc(S(=O)(=O)N4CCCC4)cc3)no2)CC1 -3.49%, CCCNC(=O)c1ccc(-c2nc(CS(=O)(=O)c3ccc(C)cc3)c(C)o2)cc1 9.26%, NC(=O)Cn1c(=O)n(CCCCCC(=O)NCc2ccc(F)cc2)c(=O)c2sccc21 2.55%, O=C(C1COc2ccccc2O1)N(Cc1cccnc1)c1nc2c(Cl)cccc2s1 (stereo not drawn) -21.3%, COc1ccc(OC)c(NC(=O)CSc2ncc3c(n2)-c2ccccc2N(C)S3(=O)=O)c1 -6.5%, CCOc1cccc(C2c3[nH]c4ccccc4c3CCN2C(=O)CSCc2ccc(F)cc2)c1 (stereo not drawn) 1.29%, Cc1ccc2c(c1)c(CC(=O)Nc1ccc(C)c(F)c1)c(C(=O)O)n2C 4.29%
